Data from PubChem BioAssay AID1345082 (National Center for Advancing Translational Sciences (NCATS), 2018).
Out of some 94,000 compounds screened, about 4,000 (4.3%) were called active. Inconclusive means that the source gave no clear call. Such entries were picked first, then a sample of the others. The call rests on the fitted dose curve; in most records, active means well fitted inhibition curve with a large enough effect; inconclusive means small, poorly fitted or top-dose-only effect; inactive means no such curve, though single readings can be large or run the other way. Potencies beside an inconclusive call are fits to weak or partial responses and may not hold up.

Assay: Cytotoxic Profiling in NIH 3T3 Cell Line of Diverse Libraries Using Quantitative High-Throughput Screening; further: nearly all actives have a fitted effect of over 55% in size
Conditions: NIH 3T3 viability, CellTiter-Glo ATP luminescence, 48-72 h; series mostly up to 96.7 µM
Outline: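 ATP-dependent luminescence (CellTiter-Glo) served as the viability signal for NIH 3T3 cells treated with compound for 48 or 72 hr at 37 °C.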
Potency means the concentration at half of the fitted maximal effect; tags describe the fitted curve by direction and shape.

| Compound | Potency |
| --- | --- |
| O=C(c1cccc(OC2CN(CC3CC=CCC3)C2)c1)N1CCOCC1 (stereo not drawn) | inactive |
| COc1cccc(CCC(=O)Nc2ccc3ncnc(N4CCCC4)c3c2)c1 | inconclusive: 50.1 µM [inhibitor, partial curve, poor fit] |
| O=C(c1ccccc1F)N1CCC(c2nn(-c3ccc(Cl)cc3)c(=O)[nH]2)CC1 | inconclusive: 50.1 µM [inhibitor, partial curve, poor fit] |
| Cn1nccc1CN1CCCC2(COc3ccccc3C(=O)N2)C1 (stereo not drawn) | active: 8.91 µM |
| CC1=C[C@@H](CN2CCN(CCO)CC2)[C@H](C(C)C)C[C@H]1Cc1nnc(-c2ccccc2F)o1 | inconclusive: 89.1 µM [inhibitor, single point] |
| CCOC(=O)C1CCN(C(=O)c2ccc3c(c2)N(CC)C2CCCCCN2C3=O)CC1 (stereo not drawn) | inactive |
| Cc1cc(C(=O)N2CCC3(CCCN(C4CCOCC4)C3=O)C2)no1 (stereo not drawn) | inactive |
| N#Cc1ccc(C(=O)Nc2ccc3n(c2=O)C[C@H]2C[C@@H]3CN(C(=O)c3ccccn3)C2)cc1 | inconclusive: 89.1 µM [inhibitor, single point] |
| O=C1CCC2(C(=O)NCCCN3CCCc4ccccc43)CCCC=C2N1C1CCCC1 (stereo not drawn) | inconclusive: 35.5 µM [inhibitor, partial curve] |
| COc1ccc2c3c1C1COC(=O)N1CC3=CC(C)(C)CO2 (stereo not drawn) | inconclusive: 39.8 µM [inhibitor, partial curve, poor fit] |
| Cc1nc(CN2C(=O)OC3(CCN(Cc4ccc(C(C)C)cc4)CC3)C2(C)c2ccccc2)cs1 (stereo not drawn) | active: 44.7 µM |
| Cn1ccnc1C(=O)C1CCCN(Cc2cc(=O)c3cccc(Cl)c3[nH]2)C1 (stereo not drawn) | inconclusive: 63.1 µM [inhibitor, partial curve, poor fit] |
| COC(=O)CCNC(=O)C1c2ccccc2C(=O)N(C2CCCC2)C12CCCCC2 (stereo not drawn) | inconclusive: 63.1 µM [inhibitor, partial curve, poor fit] |
| COCCN1C[C@H]2COc3ccccc3[C@H]2N(C(=O)OCC(C)C)CCC1=O | inconclusive: 50.1 µM [inhibitor, partial curve, poor fit] |
| Cc1ccc(CN2CCc3nc(C(=O)Nc4ccccc4)oc3CC2)cc1 | inconclusive: 79.4 µM [inhibitor, partial curve] |
| CSc1ccc(NC(=O)N2CCC(N(CCC(C)C)C3CCOCC3)CC2)cc1 | inactive |
| O=C(Cn1nc2n(c1=O)CCCCC2)Nc1ccc(C(F)(F)F)cc1 | inconclusive: 44.7 µM [inhibitor, partial curve, poor fit] |
| O=C(c1ccccc1)N1CCC2(CC1)COc1ccccc1[S+](=O)([O-])N2 | inconclusive: 70.8 µM [inhibitor, single point] |
| Cn1ncc2c(C(=O)NCC3CC3)cc(-c3ccccc3F)nc21 | inconclusive: 56.2 µM [inhibitor, partial curve, poor fit] |
| Cn1cccc1CN1CCC2(CC1)CN(c1ncccn1)CC2CO (stereo not drawn) | inactive |
| COc1ccc(NC(=O)Cc2c[nH]c3ncc(-c4ccccc4C)cc23)cc1 | inconclusive: 39.8 µM [inhibitor, partial curve, poor fit] |
| Cc1cccc(-c2nc3ccc(C(=O)NCCc4ccccc4)cc3o2)n1 | inconclusive: 56.2 µM [inhibitor, partial curve, poor fit] |

| Compound | Potency |
| --- | --- |
| CN(CC1CCOCC1)S(=O)(=O)c1cc(F)cc(F)c1 | inactive |
| O=C(c1ccccc1F)N1CCC2(CC1)CC(OCC1CC1)CCO2 (stereo not drawn) | inactive |
| COc1ccc(CN[C@H](C)c2onc(C)c2C(=O)O)cc1 | inactive |
| O=C1O[C@@H]2[C@H]3[C@@H]([C@H]1C[C@H]2O)N(c1ccccc1)C(=S)N3Cc1ccccc1 | inactive |
| Cc1cccc(NC(=O)CN2C(=O)NC(c3ccccc3Cl)C3=C2COC3=O)c1 (stereo not drawn) | inconclusive: 50.1 µM [inhibitor, partial curve, poor fit] |
| CC1=C(C(=O)OC(C)(C)C)C(c2ccccc2)N2C(CC(=O)N3CCCC3)=CSC2=N1 (stereo not drawn) | inconclusive: 39.8 µM [inhibitor, partial curve, poor fit] |
| COc1ccc(NC(=O)CCC2CCCN(S(=O)(=O)c3ccc(C)cc3)C2)c(OC)c1 (stereo not drawn) | inconclusive: 50.1 µM [inhibitor, single point] |
| COc1ccc(C(=O)N2CCC3(CC2)N=C(c2cccc(Br)c2)NO3)cc1OC | inconclusive: 50.1 µM [inhibitor, partial curve, poor fit] |
| COc1ccc(C(=O)Nc2cccc(-c3nnc4n3CCCC4)c2)c(C)c1 | inactive |
| Fc1ccc(-c2cc(CC3(NCC4CCCCC4)COC3)no2)cc1 | inconclusive: 79.4 µM [inhibitor, partial curve, poor fit] |
| Cn1ncc2c(C(=O)N3CCCC3)cc(-c3ccc(C(F)(F)F)cc3)nc21 | inconclusive: 44.7 µM [inhibitor, partial curve] |
| O=C(COc1ccc(F)cc1)N1CCCCC1c1nc(-c2cnccn2)n[nH]1 (stereo not drawn) | inactive |
| CC(C)c1ccc([S+](=O)([O-])N2CC(CNC(=O)c3cnn(C)c3)C3(CN(c4ccccc4)C3)C2)cc1 (stereo not drawn) | inconclusive: 50.1 µM [inhibitor, partial curve, poor fit] |
| Cc1ccc(NC(=O)C2CCCCC(=O)N2)cc1F (stereo not drawn) | inactive |
| Cc1nc(NCCN2CCOC2=O)c2sccc2n1 | inactive |
| Cc1occc1C(=O)N1CCC2(CCCN(Cc3cccnc3)C2=O)C1 (stereo not drawn) | inactive |
| CN(C)c1cccc(NC(=O)Cc2c[nH]c3ncc(-c4cnn(C)c4)cc23)c1 | active: 31.6 µM |
| O=C(CN1C(=O)NC2(CCCCC2)C1=O)Nc1cccc(Br)c1 | inactive |
| COc1ccc(-n2ccnc2CN2CCN(CC=C(C)C)C(CCO)C2)cc1 (stereo not drawn) | inconclusive: 56.2 µM [inhibitor, partial curve, poor fit] |
| COc1cccc(CNc2ncnc3c2CN(C2CCCC2)C(=O)CN3C)c1 | inconclusive: 70.8 µM [inhibitor, single point] |
| CN(C)CCC(=O)N1Cc2ccccc2CC2(CCCN(C)C2)C1 (stereo not drawn) | inconclusive: 56.2 µM [inhibitor, partial curve, poor fit] |
